± gives the standard deviation of the averaged measurements. This is one part of the list.
System: PfAP2-EXP AP2 domain (GST-tagged)
Assay: gcPBM binding intensity (ln(normalized median fluorescence intensity)); higher = stronger DNA binding
Method in brief: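 GST-tagged P. falciparum DNA-binding domains produced in E. coli were incubated for 1 h on an Agilent 4 × 180k array of primer-extended double-stranded 36-bp intergenic genomic probes with negative controls. Binding intensity is the highest Masliner-normalised natural-log median intensity across replicate spots of either probe orientation, with bound protein detected by Alexa488 anti-GST antibody at 488 nm.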

Sequence	gcPBM binding intensity (ln)
TATATAAAAAAACAAAGTACATGTTCTTAATCATTT [XGTACX_site8446]	8.41 ± 0.37
AAATGAACAAGTGGCACACACACATCATAACTAATT [CACACA_site5730]	8.69 ± 0.37
ATATATTTTTTCTTAACACACATATATAAAATAAAA [CACACA_site3500]	8.34 ± 0.33
CAAAATATATATACCACACACACATACCTCTATTTG [CACACA_site1853]	8.69 ± 0.31
CACGCGAACATACATACACACACATATATATATATG [CACACA_site7951]	8.97 ± 0.42
TATATATATATATACACACACACACCGATATATATA [CACACA_site8813]	10.3 ± 0.41
ACCCTCATATTATAGACACACACAAAAAAAATAAAA [CACACA_site7941]	8.64 ± 0.58
AGAAATGAAATATACACACATACATATATACATATA [CACACA_site4033]	8.49 ± 0.27
ATTAATAATGAGTTATGTACATACATATTTTAAGAT [XGTACX_site7543]	8.77 ± 0.32
TAAATACACCCTAGACGTACATAAAAATTTAGTATG [XGTACX_site2512]	8.63 ± 0.45
TGTCCTTATGGGCACACACACATATAAGAAATTTAA [CACACA_site3187]	8.41 ± 0.53
TAAACATACATATACACACACACACCCACACCCACA [CACACA_site492]	8.79 ± 0.65
AAAAACAAACTGTGCATGCACCAAAAAAAAAAAAAA	9.38 ± 0.16
ATATTTATATATATGTGTACATATAGAAACATAAAA [XGTACX_site4355]	8.47 ± 0.31
CTTCTTATTTTCTAATGTACGTACAAATCATTTATA [XGTACX_site2176]	9.14 ± 0.35
TTTTTTTTTTTAATTTGTACGAATCTTTTTATTTTA [XGTACX_site4516]	8.54 ± 0.49
ATTTTTTTATAAAATTTTTATATATTATATAAATAT [GTGCAC_negctrl_site163]	8.23 ± 0.47
TAAAAATAGTATACAACACACGAGGGAAAATAAAGT [CACACA_site3837]	9.56 ± 0.49
GCCAATAAAGATGTGGTGCATTATATATATATATAT	10.3 ± 0.23
AAATGTATAATATTTTCACACACAAGAAAAAAGAAA [CACACA_site9195]	8.61 ± 0.49
TATCGAGCACGGCGTGTGGAGTTACAAAGAGGAGAA [CACACA_negctrl_site40]	9.05 ± 0.37
ATAAACAATTAACAAACATGCAAATTTTAAATGTGT [TGCATGCA_site919]	8.75 ± 0.21
CGTATTTATATAATTACACACCATATTTTAATTATT [CACACA_site5960]	8.57 ± 0.38

Sequence	gcPBM binding intensity (ln)
ATTTATTTGTTTGTTTTTTTTACGATTTTTATTTTT [CACACA_negctrl_site1138]	8.71 ± 0.5
ATCTATGATATATACACACACATGTATAAATAAATA [CACACA_site7012]	8.37 ± 0.4
TAATTTTTTTTTCTTGTACACACTATTTTATAATTT [CACACA_site4078]	8.79 ± 0.44
AATAGTATTCACAAAGTTTTATATAATAAATATAAA [GTGCAC_negctrl_site154]	8.1 ± 0.45
CTTTCATATGTTTTAACACACACGCATATATTATAT [CACACA_site8615]	9.04 ± 0.4
TTTTTTTTTTTGATTTGTACACAAAAAAAATATATG [XGTACX_site4547]	8.39 ± 0.29
TTTTTTTTTTGATGTTGTACATATATATTATATATA [XGTACX_site6377]	8.55 ± 0.41
TTTTTTTTTTTTTTTTGTACATATTTTTAAACTATA [XGTACX_site2897]	8.22 ± 0.45
AGATATATGGACGACTCACACATTTAAATTCATTCA [CACACA_site6047]	8.65 ± 0.4
TCGAACGTATCATGTGTACACACAAATTGTTTTTTT [CACACA_site8623]	8.85 ± 0.3
GTATAAAAGTAACTAGTGCATTACATATGAATAAAA	8.74 ± 0.51
CCTTGCCCCAGGAGTTCACACACATAATAGATTGTC [CACACA_site8138]	8.82 ± 0.64
AGATATTTTTCTTAAGTACACACTAATTAGAAACTA [CACACA_site7897]	8.52 ± 0.23
TTTTTATTTTAAAAGAATAATTATCTAATATCTATA [CACACA_negctrl_site371]	7.96 ± 0.41
TTACCTCTTTGAAATATACACACTAAACATATCAAC [CACACA_site2455]	8.6 ± 0.42
GACACCTGCATGAAAGTGCAAAATAGAAAAGGAACA [GTGCAC_site9593]	9.22 ± 0.38
AAATACCTTATATATACACACTATGTTTTTCTTTTT [CACACA_site4792]	8.71 ± 0.36
AACACGCACAGACACACACACAAAAATGATTAAAAA [CACACA_site7195]	8.61 ± 0.32
AAGGAATAATAATAAATGTAAAGAAAAGCATACTGA [CACACA_negctrl_site36]	8.79 ± 0.45
TTTATGAGGTTACTATGTACGCAAATTATGTAATAA [XGTACX_site325]	8.63 ± 0.23
ATTTGTGTTATTCGAAGTACGGATCATTTGAAATAA [XGTACX_site2510]	8.56 ± 0.31
AAAAGAAGAAACAAAACACACACAGTCTTCTTTTCT [CACACA_site9015]	8.93 ± 0.62
AGCAATTTGGGGTGTACACACACCTTATTTAAATTA [CACACA_site1157]	8.74 ± 0.38

Sequence	gcPBM binding intensity (ln)
TCAAATTATTAAAATACACACATATTATATATATAT [CACACA_site2530]	9.46 ± 0.23
TAATAAAACATATATACACACATTAGATATACATAT [CACACA_site6897]	8.46 ± 0.4
TTCCCAACATGATATTGTACATTTAATTATAATTAA [XGTACX_site7029]	8.81 ± 0.38
TATAAATAAAGACACACACACACACCGTATAATTAC [CACACA_site7829]	8.65 ± 0.57
TATATCTCTTTATTCACACATACGTTTTAAAATAAT [CACACA_site5542]	8.8 ± 0.44
CCAGGAAAAATTTATTGTACATATATTTTTATGCTC [XGTACX_site7154]	8.55 ± 0.47
TATATGTTTGAATATACACACAACATATATATATAT [CACACA_site4066]	10 ± 0.26
ATATTATTAATTTGTTGTACAGTTCTTTATTTATAG [XGTACX_site7932]	8.82 ± 0.45
TATATTAAAAAAAAATGTACACATATATATATATAT [XGTACX_site4524]	10.1 ± 0.43
TATTTTTGGTTATGTGTGCACTATGAACAACAAAAT	9.18 ± 0.14
TATTTTTAACAGTGCACACATAACTTAATTATATGT [CACACA_site2194]	8.81 ± 0.18
GAAAGAAAATATTAAGTGCATATTTTAATGATACAA [GTGCAC_site9712]	8.6 ± 0.22
ATAAAAATAAAAAAAACACACATACCTTATTTTTGT [CACACA_site5452]	8.54 ± 0.57
GTGCATAAATCATACACACACACATATATATATATA [CACACA_site2423]	10.1 ± 0.18
AATCAAAATAAATTAACACACAATTTTAATATTGTT [CACACA_site10]	8.18 ± 0.36
TATAAAAAATTATGTTGTACGTAATATAAAATTTGT [XGTACX_site7122]	8.57 ± 0.3
AAATATAAATGGTAATACACATACACACACACATAC [XGTACX_negctrl_site459]	9.04 ± 0.41
ATTTTCCATATATTTTGTACATATGTATATTTTCCC [XGTACX_site7795]	9.01 ± 0.48
CATATATGTTATATTTAACACACATATAAGGTACAT [CACACA_site8105]	8.47 ± 0.38
TATATATTATATATATGTACATATTGTTGTGTATAT [XGTACX_site767]	8.63 ± 0.29
TTTATAATTTATATCACACATATATCTGTAATAAAT [CACACA_site5048]	8.24 ± 0.44
ATCTCTGTAAAGATCACACATATATTTTTGTTATAT [CACACA_site5094]	8.48 ± 0.35
TTATTACACACATATGTGCACATATAAAAGTACACG [GTGCAC_site9581]	8.97 ± 0.25

Sequence	gcPBM binding intensity (ln)
CAGCTCTTAAAAATTACACACATATACACATATATA [CACACA_site9073]	8.29 ± 0.4
TATAAATACAATTCACAAGAGATCATGTATCAAACC [CACACA_negctrl_site1219]	8.41 ± 0.4
TATATATATATATATACACACATTTTTAATGATAAA [CACACA_site2695]	10.1 ± 0.37
TTTCTAGTTACAAGAGTGCATAATATATAAAAATAA [GTGCAC_site9874]	8.85
ATATAATAAATATGTTGTACTATAAAAAATAGCCAT [XGTACX_site4710]	8.36 ± 0.092
TTAGTCGAATGATGTACACACATACAAAACATTTAT [CACACA_site6076]	8.63 ± 0.39
ACTAATTACTATAAAACACACATATATATATATATA [CACACA_site2591]	10.2 ± 0.29
AAAAAAAAAAAAAAAAAAAAAAAAAAAAGAAAAAAG [GTGCAC_negctrl_site583]	8.905 ± 0.049
AGAAAATATTTTGGTTGTACAGGCGATTTATATGTT [XGTACX_site7253]	8.79 ± 0.51
AAAAATTCTTGGCGCACACACTTTAAAAATTAAAAA [CACACA_site4498]	8.7 ± 0.33
TTATATTTTCAGAATAGTACACATATATACATATAT [XGTACX_site2519]	8.31 ± 0.24
TTATAAAAGAAAAAAAAAAAAAAAAAAAAAAAAAAA [CACACA_negctrl_site1006]	7.89 ± 0.43
GATCATTTAAAATAAGTAATATTTTTTTTACTTTTG [TGCATGCA_negctrl_site602]	8.03 ± 0.28
TTTAGCCAATTTTTAAAGTTTAAAAAAGAAAAAAGA [CACACA_negctrl_site118]	8.38 ± 0.39
TATTAAAAATACATATGTACTCATAGCATAAAACAT [XGTACX_site8686]	8.73 ± 0.36
TTTTGGCTGATCAGATTTAACAAAAAAAAAAAAAAA [CACACA_negctrl_site671]	8.09 ± 0.54
TGTGAAAATTATGGGGCATGCAATACTTTAAAAATA [TGCATGCA_site653]	9.28 ± 0.57
CAAATGTAGAAAATGTGTACATAAAAAAAAAAAAAA [XGTACX_site8276]	8.37 ± 0.55
AGTCAATTTTGTGTGTCAACATTTATATAAAGAATG [TGCATGCA_negctrl_site400]	8.54 ± 0.38
CCTTCAATTTACATAACACACATTTAACCATAATAA [CACACA_site2394]	8.56 ± 0.36
